{
  "source": "the supplement of paper PMC10670038",
  "note": "Where a name gives a salt, the structure may show the parent alone. ± gives the standard deviation of the averaged measurements. In all, about 2,000 compounds were measured (“relative cell viability vs DMSO, compound alone”: median about 1.1, lowest 2% from about 0.29 on). This is one part of the list.",
  "data": [
    {"tested_on": "TE10", "assay": "relative cell viability vs DMSO, compound alone (fraction); TE10 is an esophageal squamous carcinoma line; higher = less cytotoxic", "conditions": "2 µM; 48 h", "protocol": "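TE10 ESCC cells (1,000/well, 384-well plates) were treated with Selleck bioactive library compounds at 2 uM alone for 48 h. Viability was read by CellTiter-Glo and expressed relative to DMSO wells. Two technical replicates (A, B).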", "values": [
      {"smiles": "Cc1ccc([N+](=O)[O-])cc1S(=O)(=O)N(C)/N=C/c1cnc2ccc(Br)cn12", "relative cell viability": "0.287 ± 0.012"},
      {"smiles": "O=c1[nH]c(=O)n([C@H]2C[C@H](O)[C@@H](CO)O2)cc1Br", "note": "[Bromodeoxyuridine (BrdU)]", "relative cell viability": "0.965 ± 0.12"},
      {"smiles": "COc1cc(NC(C)CCCN)c2ncccc2c1", "note": "(stereo not given) [Primaquine Diphosphate]", "relative cell viability": "0.997 ± 0.0094"},
      {"smiles": "Cc1ncc(Cl)cc1NCc1ccc(C(=O)N[C@@H](CC2CCCC2)C(=O)NC2CC2)s1", "relative cell viability": "1.06 ± 0.039"},
      {"smiles": "CCN(CC)CCOC(=O)C(c1ccccc1)c1ccccc1", "note": "[Adiphenine HCl]", "relative cell viability": "0.872 ± 0.12"},
      {"smiles": "OC(CCCN1CCCCC1)(c1ccccc1)c1ccccc1", "note": "[Diphenidol HCl]", "relative cell viability": "1.09 ± 0.15"},
      {"smiles": "CCCCCCCCCCCCc1ccc(S(=O)(=O)Nc2nncs2)cc1", "relative cell viability": "1.12 ± 0.011"},
      {"smiles": "CCOC(=O)c1ccc(N)cc1", "note": "[Benzocaine]", "relative cell viability": "1.08 ± 0.016"},
      {"smiles": "Nc1cc(F)ccc1NC(=O)/C=C/c1cnn(C/C=C/c2ccccc2)c1", "relative cell viability": "1.14 ± 0.012"},
      {"smiles": "CN(Cc1cnc2nc(N)nc(N)c2n1)c1ccc(C(=O)N[C@@H](CCC(=O)O)C(=O)O)cc1", "note": "[Methotrexate]", "relative cell viability": "0.143 ± 0.0081"},
      {"smiles": "CCOc1ccc2nc3cc(N)ccc3c(N)c2c1", "note": "[Ethacridine lactate monohydrate]", "relative cell viability": "1.033 ± 0.0023"},
      {"smiles": "COc1cc(C(C)=O)ccc1O", "note": "[Apocynin]", "relative cell viability": "1.07 ± 0.059"},
      {"smiles": "O=c1ccc2ccccc2o1", "note": "[Coumarin]", "relative cell viability": "1.0837 ± 0.0003"},
      {"smiles": "Cc1nc(-c2cccnc2)sc1C(=O)Nc1ccccc1-c1cn2c(CN3CCOCC3)csc2n1", "relative cell viability": "1.09 ± 0.057"},
      {"smiles": "CN(C)CCCN1c2ccccc2Sc2ccc(Cl)cc21", "note": "[Chlorpromazine HCl]", "relative cell viability": "1.01 ± 0.029"},
      {"smiles": "Nc1ccc(C(=O)Nc2cccc(-c3nc(N4CCOCC4)c4oc5ncccc5c4n3)c2)cn1", "relative cell viability": "0.713 ± 0.072"},
      {"smiles": "O=C1NC(=O)/C(=C/c2ccc3c(c2)OC(F)(F)O3)S1", "relative cell viability": "1.05 ± 0.019"},
      {"smiles": "CCOc1ccccc1OC(c1ccccc1)C1CNCCO1", "note": "(stereo not given) [Reboxetine mesylate]", "relative cell viability": "0.864 ± 0.057"},
      {"smiles": "O=c1[nH]cnc2c1ncn2[C@@H]1O[C@H](CO)[C@@H](O)[C@H]1O", "note": "[Inosine]", "relative cell viability": "0.945 ± 0.065"},
      {"smiles": "COc1cc([C@@H]2c3cc4c(cc3[C@@H](O[C@@H]3O[C@@H]5CO[C@@H](c6cccs6)O[C@H]5[C@H](O)[C@H]3O)[C@H]3COC(=O)[C@H]23)OCO4)cc(OC)c1O", "note": "[Teniposide]", "relative cell viability": "0.471 ± 0.0048"},
      {"smiles": "c1cncc(CN2CCC(n3ncc4c(N5CCOCC5)nc(-c5ccc6[nH]ccc6c5)nc43)CC2)c1", "relative cell viability": "0.766 ± 0.063"},
      {"smiles": "COC1CCN(C(=O)c2cc(Cc3n[nH]c(=O)c4ccccc34)ccc2F)CC1", "relative cell viability": "0.964 ± 0.077"},
      {"smiles": "O=C1C(=O)c2ccccc2C(O)=C1C1CCC(c2ccc(Cl)cc2)CC1", "note": "(stereo not given) [Atovaquone]", "relative cell viability": "1.13 ± 0.076"},
      {"smiles": "Cn1cc(-c2ccncc2)c(-c2ccc(OCc3ccc4ccccc4n3)cc2)n1", "relative cell viability": "0.759 ± 0.038"},
      {"smiles": "O=C(O)[C@H]1O[C@@H](Oc2cc3oc(-c4ccccc4)cc(=O)c3c(O)c2O)[C@H](O)[C@@H](O)[C@@H]1O", "note": "[Baicalin]", "relative cell viability": "0.993 ± 0.032"},
      {"smiles": "Cc1cc(C)c(S(=O)(=O)n2cc(C)cc2C)c(C)c1", "relative cell viability": "1.189 ± 0.0094"},
      {"smiles": "Cc1[nH]c2ccccc2c1CCNCc1ccc(/C=C/C(=O)NO)cc1", "note": "[Panobinostat (LBH589)]", "relative cell viability": "0.0672 ± 0.00084"},
      {"smiles": "Cc1ccc2c(=O)c3cccc(CC(=O)O)c3oc2c1C", "note": "[DMXAA (Vadimezan)]", "relative cell viability": "1.02 ± 0.11"},
      {"smiles": "C=C1/C(=C\\C=C2/CCC[C@]3(C)[C@@H]([C@H](C)/C=C/[C@H](C)C(C)C)CC[C@@H]23)C[C@@H](O)C[C@@H]1O", "note": "[Doxercalciferol]", "relative cell viability": "0.986 ± 0.23"},
      {"smiles": "C[C@H]1O[C@@H](Oc2c(-c3cc(O)c(O)c(O)c3)oc3cc(O)cc(O)c3c2=O)[C@@H](O)[C@@H](O)[C@@H]1O", "note": "[Myricitrin]", "relative cell viability": "0.988 ± 0.19"},
      {"smiles": "CCCCN1CCCCC1C(=O)Nc1c(C)cccc1C", "note": "(stereo not given) [Bupivacaine HCl]", "relative cell viability": "1.1 ± 0.052"},
      {"smiles": "CCOC(=O)c1[nH]c2cc(Cl)ccc2c1C(C(=O)NC(C)(C)C)N(C=O)Cc1ccc(Cl)cc1", "note": "(stereo not given)", "relative cell viability": "1.189 ± 0.0039"},
      {"smiles": "CCN1CCN(Cc2ccc(-c3cc4c(N[C@H](C)c5ccccc5)ncnc4[nH]3)cc2)CC1", "relative cell viability": "1.308 ± 0.0033"},
      {"smiles": "CCOC(=O)c1c(CSc2ccccc2)n(C)c2cc(Br)c(O)c(CN(C)C)c12", "note": "[Arbidol HCl]", "relative cell viability": "0.876 ± 0.064"},
      {"smiles": "COc1cc(N2CCC(N3CCN(C)CC3)CC2)ccc1Nc1ncnc(Nc2ccccc2S(=O)(=O)C(C)C)n1", "relative cell viability": "1.05 ± 0.073"},
      {"smiles": "Cc1nc(Nc2ncc(C(=O)Nc3c(C)cccc3Cl)s2)cc(N2CCN(CCO)CC2)n1", "note": "[Dasatinib]", "relative cell viability": "0.98 ± 0.0031"},
      {"smiles": "Cc1nc(Nc2ncc(C(=O)Nc3c(C)cccc3Cl)s2)cc(N2CCN(CCO)CC2)n1", "note": "[Dasatinib Monohydrate]", "relative cell viability": "0.938 ± 0.087"},
      {"smiles": "Cc1cc(Nc2nc(N[C@@H](C)c3ccc(F)cc3)c(C#N)cc2F)n[nH]1", "relative cell viability": "0.772 ± 0.087"},
      {"smiles": "Cc1nc(-c2ccc(OCC(C)C)c(C#N)c2)sc1C(=O)O", "note": "[Febuxostat]", "relative cell viability": "1.04 ± 0.091"},
      {"smiles": "CC(C(=O)O)c1ccc2c(c1)CC(=O)c1ccccc1S2", "note": "(stereo not given) [Zaltoprofen]", "relative cell viability": "1.01 ± 0.018"}
    ]}
  ]
}
